Test results reported in PubChem BioAssay AID1347417 (National Center for Advancing Translational Sciences (NCATS), 2020).
The campaign covered roughly 120,000 compounds. About 5,300 (4.4%) were called active. The inconclusive results got no clear call from the source; some entries with a clear call stand among them for comparison. Calls come from the whole dose curve; as a rule, active = well fitted inhibition curve with a large enough effect; inconclusive = small, poorly fitted or top-dose-only effect; inactive = no such curve, though single readings can be large or run the other way. Where the call is inconclusive, the potency comes from a doubtful curve fit.
Potency is the fitted concentration of half-maximal effect; tags give direction and shape of the fitted curve.

Experiment: qHTS Primary assay for Inhibitors of Plasmodium falciparum Dd2 growth in vitro; note: nearly all actives have a fitted effect of over 65% in size
Conditions: P. falciparum Dd2 growth, SYBR Green, 72 h; series mostly up to 28.9 µM
Method in brief: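 Infected erythrocytes (Dd2, 0.3% parasitemia, 2.5% hematocrit final) are added to compound in RPMI-1640/Albumax II medium, grown 72 h at 37C in low oxygen, then lysed with saponin/Triton-X containing SYBR Green and read by fluorescence.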
For O=C([C@H]1C[C@H](Oc2cccnc2)CN1C(=O)c1nccc2ccccc12)N1CCOCC1, the Potency was “inactive”.
With CCn1c(=O)cc(OCC(=O)NCc2ccccc2OC)c2ccccc21 the Potency was inconclusive: 7.94 µM [inhibitor, single point].
With Cc1ccccc1Nc1nn2c(=O)c3ccc(C(=O)NCc4ccccc4)cc3nc2s1 the Potency was inconclusive: 10 µM [inhibitor, single point].
For CCCC(=O)N1Cc2ccccc2CC2(CCCN(CCC)C2)C1 (stereo not given), the Potency was active: 8.91 µM.
In the case of COCCN1C(=O)Cc2ccccc2C1C(=O)NCc1ccc(Cl)cc1 (stereo not given), the Potency is reported as inconclusive: 20 µM [inhibitor, single point].
With CNC(=O)CCn1ncc2cc(OCc3ccccc3-c3cc(F)ccc3C)ccc21 the Potency was active: 3.16 µM.
With COc1cccc(Cn2c(=O)n(-c3cccc(Cl)c3)c(=O)c3c4c(sc32)CN(C(C)=O)CC4)c1 the Potency was inconclusive: 8.91 µM [inhibitor, partial curve, poor fit].
For CCOc1cc(OCC)cc(C(=O)Nc2cccc(-c3nc4ccccc4[nH]3)c2)c1, the Potency was inconclusive: 11.2 µM [inhibitor, partial curve, poor fit].
In the case of CN1CC(=O)N(CC(=O)N2CCC3(CC2)[C@H](O)C[C@@H]3OCCO)C1=O, the Potency is reported as “inactive”.
In the case of CC1=C[C@@H](CNCc2ccc(Cl)cc2)[C@H](C(C)C)C[C@H]1Cc1nnc(-c2cncn2C)o1, the Potency is reported as active: 3.98 µM.
With Cn1cc(CN2CCC3(CC2)COc2ccccc2C(=O)N3)cn1 the Potency was inconclusive: 14.1 µM [inhibitor, single point].
With CN(CC1CC1)C1CCOc2ccccc21 (stereo not given) the Potency was inconclusive: 7.94 µM [inhibitor, full curve, poor fit].
For CCOC(=O)N1CCc2c(sc3c2c(=O)n(Cc2ccccc2)c(=O)n3Cc2cccc(C)c2)C1, the Potency was inconclusive: 1.12 µM [inhibitor, single point].
For Cc1ccsc1C(=O)N1CCC(Oc2cccnc2)C1 (stereo not given), the Potency was inconclusive: 10 µM [inhibitor, single point].
For COc1cccc(NC(=O)N[C@H]2[C@H](O)[C@@H](Oc3ccccc3)[C@@H]3OC[C@H]2O3)c1, the Potency was inconclusive: 1 µM [inhibitor, full curve].
With Cc1ncsc1C(=O)N1CC(CNC(=O)C2CC2)C2(C1)CN(c1ccccc1)C2 (stereo not given) the Potency was inconclusive: 1.58 µM [inhibitor, partial curve, poor fit].
With O=C1NC(=NC2CCCCC2)C2(CCN([S+](=O)([O-])c3cccc(C(F)(F)F)c3)C2)N1c1cccnc1 (stereo not given) the Potency was “inactive”.
In the case of O=C(c1ccn[nH]1)N1CCC(N2C(=O)C3(CCCC3)C2c2ccccc2)CC1 (stereo not given), the Potency is reported as inconclusive: 2.24 µM [inhibitor, full curve, poor fit].
In the case of O=C(c1ccc2c(c1)OCO2)c1cn(Cc2ccc(Cl)cc2)c2ccc(F)cc2c1=O, the Potency is reported as inconclusive: 14.1 µM [inhibitor, single point].
For COCCNC(=O)[C@H]1C[C@H](Oc2cccnc2)CN1C(=O)NCc1ccc(C)cc1, the Potency was “inactive”.
For COc1coc(CN2Cc3[nH]cnc3CC2C(=O)O)cc1=O (stereo not given), the Potency was “inactive”.
In the case of Cc1ccc(-c2cn3cccnc3n2)cc1NC(=O)Nc1ccc(F)cc1, the Potency is reported as inconclusive: 3.55 µM [inhibitor, full curve, poor fit].
With Cc1oc(-c2ccccc2)nc1Cn1ccn2nc3c(c2c1=O)CCCC3 the Potency was inconclusive: 17.8 µM [inhibitor, single point].
For COc1ccc2c(c1)c(=O)c(S(=O)(=O)c1ccc(F)cc1)cn2Cc1ccccc1Cl, the Potency was inconclusive: 7.94 µM [inhibitor, partial curve, poor fit].
For O=[S+]([O-])(c1cccc(C(F)(F)F)c1)N1CCC2(CCN(Cc3cccs3)c3ccccc3O2)CC1, the Potency was inconclusive: 1.41 µM [inhibitor, partial curve, poor fit].
With Cc1ccc(S(=O)(=O)c2nnn3c2nc(NCCCOC(C)C)c2ccccc23)cc1C the Potency was inconclusive: 2.51 µM [inhibitor, full curve, poor fit].
For O=C(c1ccsc1)N1CCC2(CC1)CC(OCC1CC1)CCO2 (stereo not given), the Potency was inconclusive: 8.91 µM [inhibitor, partial curve, poor fit].
With COCC1(C(=O)N2CCN(C)C3(CCNC(=O)CC3)C2)CC1 (stereo not given) the Potency was “inactive”.
For COc1ccc(-c2noc(-c3cccn3CC(=O)Nc3cc(Cl)ccc3OC)n2)cc1F, the Potency was active: 3.98 µM.
In the case of CC(C)NC(=O)N1CCN(C(=O)c2ccc(N(C)C)cc2)C[C@H]1C(=O)N[C@@H](CC1CCCCC1)C(N)=O, the Potency is reported as “inactive”.
With COCC(=O)N1CCC(C(=O)NCC2(c3ccccc3)CCCCC2)CC1 the Potency was inconclusive: 12.6 µM [inhibitor, partial curve, poor fit].
For O=C(Cc1ccccc1)N1CCCC(c2nn(-c3ccc(Cl)cc3)c(=O)[nH]2)C1 (stereo not given), the Potency was inconclusive: 10 µM [inhibitor, single point].
With O=C(Nc1ccc(F)cc1)N[C@H]1[C@H](O)[C@@H](Oc2ccccc2)[C@@H]2OC[C@H]1O2 the Potency was inconclusive: 10 µM [inhibitor, partial curve, poor fit].
For CCC(=O)Nc1ccc2nc(SCCOc3ccc(C)cc3OC)sc2c1, the Potency was inconclusive: 17.8 µM [inhibitor, single point].
In the case of CC(=O)c1ccc(NC(=O)CSc2nc(-c3ccc(C)cc3)nc3c2c(=O)n(C)c(=O)n3C)cc1, the Potency is reported as inconclusive: 2 µM [inhibitor, full curve, poor fit].
With CCn1c(=O)cc(OCC(=O)N2CCN(c3ccc(C)cc3)C(C)C2)c2ccccc21 (stereo not given) the Potency was inconclusive: 10 µM [inhibitor, single point].
In the case of Cc1ccc(-c2cn3c(n2)CO[C@@H](CNC(=O)NCc2ccccc2)C3)cc1, the Potency is reported as “inactive”.
In the case of CCn1nc(C)c(-c2cc(C(=O)N3CCC(CCOc4ccccc4OC)C3)no2)c1C (stereo not given), the Potency is reported as inconclusive: 3.55 µM [inhibitor, partial curve, poor fit].
With CNC(=O)[C@@H]1CN(S(=O)(=O)C(C)C)C[C@H]1c1n[nH]c(C)n1 the Potency was “inactive”.
With COc1ccccc1NC(=O)C1=C(C)Nc2nc(SCc3ccccc3)nn2C1c1cccc(O)c1 (stereo not given) the Potency was inconclusive: 10 µM [inhibitor, single point].
